In PMC4336329 (PLoS ONE, 2015):
In all, about 310,000 compounds went through this assay and about 14,000 (4.5%) showed an effect of 50% or more. Effects have a minus sign here. This is one part of the list.

target: human ether-à-go-go-related gene (hERG) potassium channel (human, UniProt Q12809); assay: primary screen, population patch clamp on CHO cells stably expressing hERG
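Further: peak tail current of the secondary pulse compared with the same well before compound.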

human ether-à-go-go-related gene (hERG) potassium channel, sequence (Q12809 whole entry, looked up): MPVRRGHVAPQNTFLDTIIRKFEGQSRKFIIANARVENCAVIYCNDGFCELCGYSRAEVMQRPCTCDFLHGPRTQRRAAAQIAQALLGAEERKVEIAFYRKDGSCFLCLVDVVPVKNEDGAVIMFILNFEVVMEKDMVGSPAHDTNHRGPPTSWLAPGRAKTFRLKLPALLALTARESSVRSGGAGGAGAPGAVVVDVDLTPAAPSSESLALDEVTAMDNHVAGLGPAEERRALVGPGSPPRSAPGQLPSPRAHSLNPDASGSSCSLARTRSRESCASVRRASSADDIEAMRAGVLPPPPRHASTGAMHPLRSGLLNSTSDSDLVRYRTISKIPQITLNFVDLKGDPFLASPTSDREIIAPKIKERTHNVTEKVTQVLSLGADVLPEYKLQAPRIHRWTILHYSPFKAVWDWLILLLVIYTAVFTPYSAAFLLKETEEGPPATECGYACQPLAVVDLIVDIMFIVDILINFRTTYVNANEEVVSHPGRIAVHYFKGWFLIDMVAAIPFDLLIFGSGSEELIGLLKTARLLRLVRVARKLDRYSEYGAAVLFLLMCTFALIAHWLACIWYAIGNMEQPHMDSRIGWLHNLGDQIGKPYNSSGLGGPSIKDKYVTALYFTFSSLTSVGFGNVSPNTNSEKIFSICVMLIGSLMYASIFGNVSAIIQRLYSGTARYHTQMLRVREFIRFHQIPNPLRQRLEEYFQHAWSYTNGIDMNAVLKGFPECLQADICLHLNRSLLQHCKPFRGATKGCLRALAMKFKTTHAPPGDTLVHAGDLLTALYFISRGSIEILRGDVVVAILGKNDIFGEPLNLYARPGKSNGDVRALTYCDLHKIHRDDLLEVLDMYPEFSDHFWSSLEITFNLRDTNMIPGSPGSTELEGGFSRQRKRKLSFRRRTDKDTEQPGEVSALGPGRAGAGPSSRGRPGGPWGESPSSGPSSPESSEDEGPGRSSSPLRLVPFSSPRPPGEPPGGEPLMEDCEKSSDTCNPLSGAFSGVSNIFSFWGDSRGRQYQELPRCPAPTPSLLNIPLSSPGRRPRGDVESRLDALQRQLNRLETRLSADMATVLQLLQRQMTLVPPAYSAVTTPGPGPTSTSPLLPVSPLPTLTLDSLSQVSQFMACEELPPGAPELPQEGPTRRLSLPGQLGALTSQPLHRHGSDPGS

| SMILES | hERG current change (%, negative = inhibition) at 10uM |
| --- | --- |
| O=[N+]([O-])c1ccc(Cl)c(NC(=S)N2CCCC2)c1 | 5.47% |
| CNS(=O)(=O)c1cccc(C(=O)OCC(=O)Nc2sc3c(c2C#N)CCCCC3)c1 | 22.8% |
| CNC(=O)CN(c1ccc(C(C)C)cc1)S(C)(=O)=O | 7.73% |
| O=C(N[C@@H](Cc1ccccc1)C(=O)N1CCC2(CC1)NCCc1[nH]cnc12)c1cccc(Br)c1 | 1.36% |
| O=C([O-])CCC/C=C\C[C@@H]1[C@@H](/C=C/[C@@H](O)COc2cccc(Cl)c2)[C@H](O)C[C@@H]1O.[Na+] | 11.3% |
| CN(C)S(=O)(=O)c1cccc(-c2nn(-c3ccccc3)cc2/C=C(\C#N)c2nc3ccccc3[nH]2)c1 | 10.5% |
| CCOC(=O)C1CCCN(S(=O)(=O)c2c(C)[nH]c(C)c2C(=O)N2CCCC2)C1 (stereo not drawn) | 7.75% |
| Cc1noc(C)c1C(=O)N1CCC(Cc2ccccc2)CC1 | -14.5% |
| O=C(COc1ccc(Cl)cc1)NCCCNC(=O)c1ccncc1 | -36.1% |
| CC(C)CCNC(=O)C1CCN(c2nnc(-n3cccc3)s2)CC1 | -21.1% |
| COC(=O)C1=C(c2ccc(-c3ccccc3)c(F)c2)C[C@@H]2CC[C@H]1N2C(=O)NCCO | -2.32% |
| Cc1ccc(CNC(=O)CN2c3cccc4cccc(c34)S2(=O)=O)cc1 | -5.89% |
| CCOC(=O)N1CCC(NC(=O)c2ccc3c(c2)N=C(C)c2c(C)ccc(C)c2S3)CC1 | 11.1% |
| O=C(O)c1ccc(NS(=O)(=O)c2ccc(Cl)c(C(=O)Nc3ccccc3[N+](=O)[O-])c2)cc1 | 7.28% |
| Cc1nc2ccccc2c2oc(C(=O)NCCCN3CCCC3=O)cc12 | -2.12% |
| O=C(C1=C[C@H](C2CCCCC2)C[C@H](OCc2ccc(CO)cc2)O1)N1CCN(Cc2ccccc2)CC1 | -67.6% |
| CCN(CC)S(=O)(=O)c1ccc2c(c1)c(=O)c(C(=O)NCc1ccco1)cn2C | -3.93% |
| O=C1C(=O)N(CCCN2CCOCC2)C(c2ccc(Cl)cc2)/C1=C(/O)c1ccc(F)cc1 (stereo not drawn) | 21.2% |
| Cc1ccc(S(=O)(=O)NCCC(=O)N2CCC(C)CC2)cc1 | -11.1% |
| CCOC(=O)c1c(C)n(C(C)C)c2ccc(OC(=O)c3ccc(N4C(=O)CCC4=O)cc3)cc12 | 24.4% |
| COc1ccccc1NC(=O)CCCN1C(=O)C2CC=CCC2C1=O (stereo not drawn) | 11.1% |

| SMILES | hERG current change (%, negative = inhibition) at 10uM |
| --- | --- |
| O=C(O)c1cccc(S(=O)(=O)N2CCC(n3nnc4cc(C(F)(F)F)ccc43)CC2)c1 | 20.7% |
| CC(C)c1ccccc1OCCNC(=O)c1cccnc1 | -1.33% |
| CCOc1ccc(NC(=O)CCS(=O)(=O)c2ccc(Br)cc2)cc1 | 12.9% |
| COc1ccc(-c2noc(COc3ccc4c(c3)OCO4)n2)cc1 | 10.1% |
| CC1CCN(CCCCOc2cccc(C(C)C)c2)CC1.O=C(O)C(=O)O | -71.7% |
| O=C(OCC#CCSc1nc2ccccc2o1)c1cc2ccccc2o1 | 7.37% |
| OCC1OC(n2nnc3ccccc32)C(O)C(O)C1O (stereo not drawn) | 20.8% |
| O=C(CSCc1c(Cl)cccc1Cl)NCc1ccccn1 | -1.29% |
| CCN(Cc1ccccc1)C(=O)c1cccc(S(=O)(=O)N2CCN(c3ccc(F)cc3)CC2)c1 | -47.2% |
| Clc1ccc(Cc2noc(CN3CCN(c4ccccc4)CC3)n2)c(Cl)c1 | -3.94% |
| Cc1ccc2[nH]c(=O)c(CN(CCCO)S(=O)(=O)c3c(C)ccc4nsnc34)cc2c1 | -16% |
| O=C(/C=C/c1ccc[nH]1)c1ccccc1 | -41.6% |
| CC(=O)c1cccc(NC(=O)CN(C2CCCCC2)S(C)(=O)=O)c1 | 3.66% |
| CSc1nnc2c3ccccc3n(CCc3ccccc3)c2n1 | -12.1% |
| O=C(NC1=NCCS1)C1COc2ccccc2O1 (stereo not drawn) | -6.51% |
| COc1cccc(CN2CC(C(=O)NCCc3ccc(C)s3)CCC2=O)c1 (stereo not drawn) | -26.5% |
| CCc1ccc(NC(=S)N(Cc2cccc(Br)c2)CC2CCC(C(=O)O)CC2)cc1 (stereo not drawn) | 23.9% |
| Cn1nc(C(=O)NC2CCCN(Cc3ccccc3F)C2)c2ccccc2c1=O (stereo not drawn) | -41.6% |
| CCc1cccc(NC(=O)CN2C(=O)NC3(CCCCCCC3)C2=O)c1 | 5.33% |
| COc1ccc(CC(C)NCCC(c2ccccc2)c2ccccc2)cc1 (stereo not drawn) | -71.5% |
| O=C1C2C3C=CC(C2C(=O)N1C1CCCCC1)C1C(=O)N(C2CCCCC2)C(=O)C31 (stereo not drawn) | 14.7% |

| SMILES | hERG current change (%, negative = inhibition) at 10uM |
| --- | --- |
| CC(OC(=O)c1ccccc1C(=O)N(C)C1CCCCC1)C(=O)NC1(C#N)CCCCC1 (stereo not drawn) | -21.4% |
| CC(=O)O[C@H]1[C@H](C)OC=C[C@@H]1OC(C)=O | 9.58% |
| NC(=O)CSc1nccn1Cc1ccccc1 | 7.57% |
| COC(=O)c1cc(NC2c3ncccc3C(=O)N2Cc2ccccc2)cc(C(=O)OC)c1 (stereo not drawn) | -9.7% |
| CNS(=O)(=O)c1ccc(N=Cc2c(O)n(-c3cccc(C)c3)c(=O)[nH]c2=O)cc1 | 14.2% |
| CCOC(=O)c1ccc(NC(=O)N2CCN(c3ccccn3)CC2)cc1 | -25.7% |
| O=C(CN1CCOCC1)Nc1ccc([N+](=O)[O-])cc1 | 0.978% |
| NC(=O)COC(=O)CN1C(=O)C2CCCCC2C1=O (stereo not drawn) | 7.64% |
| CCOC(=O)c1cccnc1SC(CC)C(=O)N1CCOCC1 (stereo not drawn) | -18.4% |
| O=C(NN1CC(C(=O)OCc2ccc(Br)cc2)CC1=O)c1ccccc1 (stereo not drawn) | -21.2% |
| Cc1c(C(=O)c2ccc(F)cc2)c2ccccn2c1CCc1ccccn1 | -7.16% |
| CC(=O)c1ccc(N2CCN(c3ncc(C(F)(F)F)cc3Cl)CC2)cc1 | 15.2% |
| CC1CC(C)(C)CC2(C1)NC(=S)N(c1ccccc1)N2 (stereo not drawn) | 17.5% |
| CCCCN1C(=O)C2C(c3ccc(OC)cc3O)NC(CC(C)C)(C(=O)O)C2C1=O (stereo not drawn) | 2.83% |
| COc1ccc(/C=N/c2c(-c3ccc(OC)cc3)nc3n2CCS3)cc1 | 8.99% |
| O=C1CCc2cc(S(=O)(=O)N3CCC(C(=O)NCc4ccccc4Cl)CC3)ccc2N1 | 4.83% |
| CC1(c2nnc(Cc3ccccc3)o2)CC(c2cccc([N+](=O)[O-])c2)=NO1 (stereo not drawn) | -7.45% |
| Nc1nccc(-c2ccc(-n3cccc3)cc2)n1 | 13.5% |
| COc1ccc(-c2noc3c2-c2nc(-c4cccc(C)c4)sc2CC3)cc1 | 7.57% |
| COC(=O)CN1C(=O)C(C)(C)Oc2ccc(C(=O)Nc3cccc(OC)c3)cc21 | -1.34% |
| Oc1ccc(-c2nc3c4c(ncn3n2)-c2ccccc2CC42CCCC2)cc1 | 6.37% |

| SMILES | hERG current change (%, negative = inhibition) at 10uM |
| --- | --- |
| O=S(=O)(c1cccs1)N1CCN(CCOc2ccc(Cl)cc2)CC1 | -34.4% |
| Cc1cccc(NC(=O)CN2CCN(C(=O)CNC(=O)Cc3cccc4ccccc34)CC2)c1C | -57.4% |
| CCOC(=O)c1cc(C)n(Cc2cccc(OC)c2OC)c1C | -14.1% |
| CCOCC(=O)Nc1sc2c(c1C(=O)OCC)CCCC2 | -17.6% |
| CCOC(=O)CSc1nnc(-c2ccoc2C)n1-c1ccc(C)cc1 | -19.3% |
| CCS(=O)(=O)N1N=C(c2cccc(NS(C)(=O)=O)c2)CC1c1ccc(C)cc1 (stereo not drawn) | -73.9% |
| CCCCOC(=O)c1ccc(NC(=O)c2cnccn2)cc1 | 21.4% |
| Cl.O=C(NCCOC(=O)C1COc2ccccc2O1)c1cccnc1 (stereo not drawn) | 15.9% |
| CN(C)CCCN(C(=O)c1ccc(S(=O)(=O)N2CCCCC2)cc1)c1nc2cc3c(cc2s1)OCO3.Cl | -70.4% |
| CCC(C)C(NC(N)=O)C(=O)Nc1ccc(C(=O)OC)cc1 (stereo not drawn) | 16.8% |
| CC1(C)CC[C@]2(CO)[C@@H](O)C[C@]3(C)C(=CCC4[C@@]5(C)CC[C@H](O)C(C)(C)C5CC[C@]43C)[C@@H]2C1 (stereo partly drawn) | 19.4% |
| Cc1ccc(-n2c(C)nn(-c3ncc(C(F)(F)F)cc3Cl)c2=O)cc1 | -1.19% |
| C=CCNC(=S)N1CCN(c2ncc3c(=O)c(C(=O)O)cn(CC)c3n2)CC1 | 2.8% |
| COc1ccc(-c2nnnn2-c2ccc(F)cc2F)cc1 | 10.7% |
| COC(=O)c1sc(NC(=O)c2ccco2)c(C#N)c1C | 14.5% |
| C=C(C)[C@@H](O)COc1c2ccoc2cc2oc(=O)ccc12 | 7.7% |
| Cl.c1ccc(NCc2cccc3ccccc23)nc1 | -1.63% |
| Clc1ccc(-c2csc(-c3cccnc3)n2)s1 | 15.1% |
| O=C(c1ccco1)N1CCN(S(=O)(=O)c2ccccc2[N+](=O)[O-])CC1 | -11.4% |
| O=c1c2ccccc2nnn1Cc1ccccn1 | 11.6% |
| Cc1ccc([C@@H]2[C@@H]3C(=O)N(C)C(=O)[C@@H]3[C@]3(C)C(=O)N(CC4CC4)CC(=O)N23)o1 | 1.54% |
